The other results are listed elsewhere or left out.
Legend:
Experiment in all cases: glycan array binding signal (z-score within array); higher = stronger binding
Details in all cases: glycan notation: IUPAC condensed, linker removed
Gal(b1-3)GlcNAc = target: Gal(b1-3)GlcNAc
How it was run: (§1)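 The binding signal is a Z-score computed within each array. Data were drawn from 3228 arrays in the Consortium for Functional Glycomics database, restricted to those with a known protein sequence. Scores were averaged over arrays of the same protein sequence at different concentrations or buffers, and over linkers, and negative values can be taken as non-binding.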

[1] = target: Gal(b1-3)GlcNAc(b1-2)Man(a1-3)[Gal(b1-3)GlcNAc(b1-2)Man(a1-6)]Man(b1-4)GlcNAc(b1-4)GlcNAc
How it was run: as §1

[2] = target: Gal(b1-3)GlcNAc(b1-3)Gal(b1-3)GlcNAc
How it was run: as §1

[3] = target: Gal(b1-3)GlcNAc(b1-3)Gal(b1-4)Glc
How it was run: as §1

[4] = target: Gal(b1-3)GlcNAc(b1-3)Gal(b1-4)GlcNAc
How it was run: as §1

[5] = target: Gal(b1-3)[Fuc(a1-4)]GlcNAc
How it was run: as §1

[6] = target: Gal(b1-3)[Fuc(a1-4)]GlcNAc(b1-3)Gal(b1-3)[Fuc(a1-4)]GlcNAc
How it was run: as §1

[7] = target: Gal(b1-3)[Fuc(a1-4)]GlcNAc(b1-3)Gal(b1-4)GlcNAc
How it was run: as §1

[8] = target: Gal(b1-3)[Fuc(a1-4)]GlcNAc(b1-3)Gal(b1-4)[Fuc(a1-3)]GlcNAc
How it was run: as §1

[9] = target: Gal(b1-3)[GlcNAc(b1-6)]GalNAc
How it was run: as §1

[10] = target: Gal(b1-3)[Neu5Ac(a2-6)]GalNAc
How it was run: as §1

[11] = target: Gal(b1-3)[Neu5Ac(a2-6)]GlcNAc(b1-6)Gal(b1-4)Glc
How it was run: as §1

[12] = target: Gal(b1-3)[Neu5Ac(b2-6)]GalNAc
How it was run: as §1

[13] = target: Gal(b1-4)GalNAc(a1-3)[Fuc(a1-2)]Gal(b1-4)GlcNAc
How it was run: as §1

[14] = target: Gal(b1-4)GalNAc(b1-3)[Fuc(a1-2)]Gal(b1-4)GlcNAc
How it was run: as §1

Gal(b1-4)Glc = target: Gal(b1-4)Glc
How it was run: as §1

Gal(b1-4)Glc6S = target: Gal(b1-4)Glc6S
How it was run: as §1

Gal(b1-4)GlcNAc = target: Gal(b1-4)GlcNAc
How it was run: as §1

[15] = target: Gal(b1-4)GlcNAc(a1-6)Gal(b1-4)GlcNAc
How it was run: as §1

[16] = target: Gal(b1-4)GlcNAc(b1-2)Man(a1-3)[Gal(b1-4)GlcNAc(b1-2)Man(a1-6)]Man(b1-4)GlcNAc(b1-4)GlcNAc
How it was run: as §1

[17] = target: Gal(b1-4)GlcNAc(b1-3)Gal(b1-3)GlcNAc
How it was run: as §1

[18] = target: Gal(b1-4)GlcNAc(b1-3)Gal(b1-4)Glc
How it was run: as §1

[19] = target: Gal(b1-4)GlcNAc(b1-3)Gal(b1-4)GlcNAc
How it was run: as §1

[20] = target: Gal(b1-4)GlcNAc(b1-3)Gal(b1-4)GlcNAc(b1-3)Gal(b1-4)GlcNAc
How it was run: as §1

[21] = target: Gal(b1-4)GlcNAc(b1-3)Gal(b1-4)[Fuc(a1-3)]GlcNAc(b1-3)Gal(b1-4)[Fuc(a1-3)]GlcNAc
How it was run: as §1

[22] = target: Gal(b1-4)GlcNAc(b1-3)GalNAc
How it was run: as §1

[23] = target: Gal(b1-4)GlcNAc(b1-3)[Gal(b1-4)GlcNAc(b1-6)]Gal(b1-4)GlcNAc
How it was run: as §1

[24] = target: Gal(b1-4)GlcNAc(b1-3)[GlcNAc(b1-6)]Gal(b1-4)GlcNAc
How it was run: as §1

[25] = target: Gal(b1-4)GlcNAc(b1-6)Gal(b1-4)GlcNAc
How it was run: as §1

[26] = target: Gal(b1-4)GlcNAc(b1-6)Gal(b1-4)GlcNAc(b1-6)GalNAc
How it was run: as §1

[27] = target: Gal(b1-4)GlcNAc(b1-6)GalNAc
How it was run: as §1

[28] = target: Gal(b1-4)GlcNAc(b1-6)[Gal(b1-3)]GalNAc
How it was run: as §1

Gal3S(b1-3)GalNAc = target: Gal3S(b1-3)GalNAc
How it was run: as §1

Gal3S(b1-3)GlcNAc = target: Gal3S(b1-3)GlcNAc
How it was run: as §1

[29] = target: Gal3S(b1-3)[Fuc(a1-4)]GlcNAc
How it was run: as §1

Gal3S(b1-4)Glc = target: Gal3S(b1-4)Glc
How it was run: as §1

Gal3S(b1-4)Glc6S = target: Gal3S(b1-4)Glc6S
How it was run: as §1

Gal3S(b1-4)GlcNAc = target: Gal3S(b1-4)GlcNAc
How it was run: as §1

B1: L-Selectin (Homo sapiens), P14151 (protein)
chain: MIFPWKCQSTQRDLWNIFKLWGWTMLCCDFLAHHGTDCWTYHYSEKPMNWQRARRFCRDNYTDLVAIQNKAEIEYLEKTLPFSRSYYWIGIRKIGGIWTWVGTNKSLTEEAENWGDGEPNNKKNKEDCVEIYIKRNKDAGKWNDDACHKLKAALCYTASCQPWSCSGHGECVEIINNYTCNCDVGYYGPQCQFVIQCEPLEAPELGTMDCTHPLGNFSFSSQCAFSCSEGTNLTGIEETTCGPFGNWSSPEPTCQVIQCEPLSAPDLGIMNCSHPLASFSFTSACTFICSEGTELIGKKKTICESSGIWSNPSPICQKLDKSFSMIKEGDYNPLFIPVAVMVTAFSGLAFIIWLARRLKKGKKSKRSMNDPY
Gal(b1-3)GlcNAc
  glycan array binding signal (z-score): -0.136
[1]
  glycan array binding signal (z-score): -0.055
[2]
  glycan array binding signal (z-score): -0.36
[3]
  glycan array binding signal (z-score): -0.036
[4]
  glycan array binding signal (z-score): -0.335
[5]
  glycan array binding signal (z-score): -0.225
[6]
  glycan array binding signal (z-score): -0.222
[7]
  glycan array binding signal (z-score): -0.356
[8]
  glycan array binding signal (z-score): -0.356
[9]
  glycan array binding signal (z-score): -0.199
[10]
  glycan array binding signal (z-score): -0.352
[11]
  glycan array binding signal (z-score): -0.314
[12]
  glycan array binding signal (z-score): -0.154
[13]
  glycan array binding signal (z-score): -0.274
[14]
  glycan array binding signal (z-score): -0.158
Gal(b1-4)Glc
  glycan array binding signal (z-score): -0.074
Gal(b1-4)Glc6S
  glycan array binding signal (z-score): 0.942
Gal(b1-4)GlcNAc
  glycan array binding signal (z-score): -0.06
[15]
  glycan array binding signal (z-score): -0.428
[16]
  glycan array binding signal (z-score): -0.126
[17]
  glycan array binding signal (z-score): 0.132
[18]
  glycan array binding signal (z-score): -0.253
[19]
  glycan array binding signal (z-score): -0.37
[20]
  glycan array binding signal (z-score): -0.047
[21]
  glycan array binding signal (z-score): -0.38
[22]
  glycan array binding signal (z-score): -0.251
[23]
  glycan array binding signal (z-score): -0.423
[24]
  glycan array binding signal (z-score): -0.383
[25]
  glycan array binding signal (z-score): -0.336
[26]
  glycan array binding signal (z-score): -0.296
[27]
  glycan array binding signal (z-score): -0.248
[28]
  glycan array binding signal (z-score): -0.227
Gal3S(b1-3)GalNAc
  glycan array binding signal (z-score): -0.271
Gal3S(b1-3)GlcNAc
  glycan array binding signal (z-score): -0.333
[29]
  glycan array binding signal (z-score): 3.08
Gal3S(b1-4)Glc
  glycan array binding signal (z-score): 0.043
Gal3S(b1-4)Glc6S
  glycan array binding signal (z-score): 0.516
Gal3S(b1-4)GlcNAc
  glycan array binding signal (z-score): -0.266

From the supplement of paper PMC8728848
